Measurements reported in the supplement of paper PMC3334620.
Over roughly 33,000 sequences, “E-score (-0.5 to 0.5)” has its median near -0.013; the highest 2% begin near 0.3. The list shows a part of the results.

Biological target: T1, Msn1 (UniProt P22148)
T1 sequence: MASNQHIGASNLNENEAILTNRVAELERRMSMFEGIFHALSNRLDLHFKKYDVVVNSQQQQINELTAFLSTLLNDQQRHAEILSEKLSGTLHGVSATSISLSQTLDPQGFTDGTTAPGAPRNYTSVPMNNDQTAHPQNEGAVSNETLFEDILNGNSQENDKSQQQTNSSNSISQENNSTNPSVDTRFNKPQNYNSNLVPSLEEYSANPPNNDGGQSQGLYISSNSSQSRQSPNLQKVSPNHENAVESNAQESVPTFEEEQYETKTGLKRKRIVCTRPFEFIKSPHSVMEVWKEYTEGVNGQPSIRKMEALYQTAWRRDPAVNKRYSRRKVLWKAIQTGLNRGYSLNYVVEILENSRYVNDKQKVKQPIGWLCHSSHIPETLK
Assay: PBM E-score (8-mer binding enrichment) (E-score (-0.5 to 0.5)); higher = stronger / more preferred TF binding; most listed sequences are background and not binding sites
Details: protein concentration: 200 nM; construct: GST-full length
In short: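 Masliner-normalised scans of fluorescent anti-GST signal were the basis for scoring. That signal came from GST-tagged yeast transcription factors applied at about 100-200 nM to double-stranded universal all-10-mer Agilent arrays on fresh or once-stripped slides. Each ungapped eight-base word, pooled with its reverse complement, received an E-score from the Universal PBM Analysis Suite.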

Sequence	PBM E-score
CTACAACC	-0.109
CTCGCTTC	-0.113
ACGGTAGC	0.0446
TCAGCACA	0.133
ACGGATGA	-0.0366
ATCCAGAT	-0.127
ACGTTAGT	0.0228
CCCCTTCA	-0.245
GGCTAGGA	-0.129
GTTCGGAA	0.135
CTCCATGC	-0.366
AAATGCTT	0.0558
AATCCGCC	-0.00324
CCGATCGG	0.0495
GAGTCGGC	-0.0725
AGGGTGTG	-0.245
ACCTTCGT	0.0107
CTCTTTCA	-0.0847
CGTCAGAA	-0.258
GCGTACCA	-0.11
AGTGGCGC	-0.115
GGCAGACC	-0.327
ACTAGCCT	0.108
ACCAGGAA	-0.0403
ACACCCCT	-0.223

Sequence	PBM E-score
AACCTGGT	0.00051
ACCCCGCC	-0.244
ACCAACAG	-0.127
CCCGCCCA	-0.126
CAATCTGA	-0.0105
CAGCTCAC	-0.0821
CTTTGTCC	0.485
GAAGTATA	0.161
GAGCATGA	-0.144
CCTGCACC	-0.233
CATTATCC	0.2
CACGGTAC	-0.102
GCGTTCTA	-0.0232
AAAGATGG	-0.0523
ATCGTTTC	-0.0386
CCAGAACA	0.0363
AAAACTAG	0.00518
GCAAAGCC	-0.278
TCTTGACA	0.167
ACTAAGTG	-0.0648
CGGTCTAA	-0.0696
CGGGCGTA	-0.0504
GAGGAGCA	-0.184
CGGAGCGC	-0.0677
GTTCTGAA	0.113

Sequence	PBM E-score
CAGCACCA	-0.185
TAGGCTCA	-0.168
CGATGTTC	-0.0457
GGTCCGGA	0.216
GAACAAGA	0.107
ATTGGTGC	-0.00948
GCGGCGCA	0.0968
CTATACAA	0.121
TAATAATA	0.197
CACAACTG	-0.0717
GGCAGCAC	-0.172
CTTGGAAC	-0.0426
CAGATCCG	0.0975
AAATAGCC	-0.0222
ACAGCAGC	-0.0914
CACTCCAG	0.0151
CAGCTGAG	-0.0676
CTATACCA	0.0767
CGAGTCAG	-0.0187
AACTTGAT	0.321
AGTAGTAT	0.018
GGACGTAC	0.163
GAAGTAAA	0.122
AGTGAGAC	0.127
TCATGGGA	0.0847

Sequence	PBM E-score
CTAGGCGC	-0.184
CGACGGCG	-0.101
ACTTACCT	-0.128
CGCCAATA	0.059
AATGCCTA	-0.157
AATCGTGC	0.148
GTCCAAAA	0.318
CAACGAGC	-0.173
AAAAAGTC	0.418
AACGACAT	0.417
TGCAGACA	0.33
CTTTCAGA	0.127
AAGGCTGC	-0.112
CTGAACCA	-0.0175
TGAATCCA	0.126
CTAGTCGA	-0.109
ACCAGACA	0.188
GACCATGA	0.0706
CCTCGGGC	-0.203
CGCGAGTA	0.0691
ACGGAGGA	0.162
CCACATTA	-0.107
AACGACGG	0.0999
CATTGTGA	-0.0194
CCAGGGGC	-0.38

Sequence	PBM E-score
CTCCCCCA	-0.283
CTCACCTC	-0.138
GGCCTCAC	-0.249
AAACTGTG	0.00536
GATGACAA	0.336
AGGCGCTC	-0.0585
GCGAACAC	-0.039
CCTTGCAG	-0.069
TAACTCAA	-0.0662
ATCTGCTG	-0.0193
ATATGCGA	0.022
ATACGACA	0.133
ATAAGAAT	0.276
AAAGGCCA	-0.124
AGCAACGC	-0.00325
ACATTACA	0.175
ACCAGTAA	0.131
AAAGCTAT	-0.0425
AATGCACC	-0.00375
CATAGAGC	-0.151
CTGGAAGC	-0.225
AATTAACC	0.0922
GAACGCCA	-0.0198
ACCCGGTA	0.0382
TGCTTGAA	0.0568

Sequence	PBM E-score
CAAGTGAC	0.0168
CTGAGGTC	-0.114
CTGGGTTA	-0.0533
GAGGTTCC	-0.0957
CCTCTTGC	-0.252
ACTGACTC	-0.0109
GATCCATA	0.0478
AGCCAAAG	0.0256
CGTGCAGA	-0.126
CCGTGTGA	0.0457
AATTAAGG	0.00385
CATTCGAG	0.00844
TCTCGGAA	0.292
AAATGTGC	0.143
GGCTCCGA	-0.0526
TGCGACCA	0.0994
CAGGGAAC	0.00069
AATTCAGT	-0.0391
AATACGCT	-0.0358
AAGAACCA	0.0199
ACATGAAA	0.0293
CATATGGC	0.189
CAGATGGC	-0.018
GGTCACTA	-0.135
GTTGGTGA	0.126

Sequence	PBM E-score
ATTTGAGG	-0.0224
AATTACAT	0.178
CGGGACAA	0.463
ATCGGTCG	0.0272
AACGCAAC	0.0985
ACTAATAT	0.225
GTAAATGA	0.00128
AAAGCTCG	-0.00694
GGTCTACA	-0.069
GATGTAGA	0.144
ATTCGGAC	0.339
GGCACCAA	-0.0664
CGCAACCA	-0.109
CAACGCTA	-0.098
CTTTGGGC	0.0389
ACGAATGG	0.141
AATGCGCT	-0.0183
CGACGGTA	0.139
CATTGCAG	0.00855
CCAGAGAC	-0.0226
AGTTGACC	-0.00887
GATTTCTA	-0.00849
GCTAACCC	-0.226
CCCAGCAA	-0.044
GTCAAGGA	-0.035

Sequence	PBM E-score
CGAGAGGA	-0.0902
ATAGCTAG	-0.166
GAAGAACA	0.236
ACAGGAAG	0.0949
AAACCTAA	0.0477
AACGAATT	0.0856
GAAGATTA	0.0384
TCATCACA	-0.0798
ACACAGCT	0.0696
TAGGTGCA	-0.16
CCAACAAA	-0.0326
AGATGGAC	0.234
GTCGATAA	0.0533
CAACTTGA	0.1
ATGGGGGA	-0.338
AAAGAAGT	0.0817
ACTGAGCA	-0.16
ACGCACGG	-0.0172
CAGGTGCC	-0.201
GACTCATC	-0.0489
ATTCGGTA	0.182
TAGGGACA	0.484
GGAAGAAA	-0.0198
AAGAAGGG	-0.197
GCCAGGAC	0.212

Sequence	PBM E-score
AGTTTGGA	0.112
AAAATATA	0.246
ATGCAAGG	-0.296
CCCTTTGA	-0.268
AAACCTAG	-0.0327
GCAGCCCA	-0.0983
GCCGCACA	-0.0234
ATATAACC	-0.0107
CTATAAAG	-0.13
GATTTGCC	0.0882
AAGTTCAA	0.0772
AATCTCCC	-0.221
TCAACTCA	-0.00767
GAGCCAAA	0.0165
AATCAGGT	0.0584
AGCTACCA	-0.12
AAACAGGT	-0.144
CAATTAAG	0.107
AGCTGTTC	-0.13
